Test results taken from US20260297081A1, “COMPOUNDS AND METHODS OF TREATING CANCERS” (Cullgen Inc., priority 2023, published 2026).
At least one read-out could not be matched to a standard name with certainty.

Test system: CyclinD1 (CCND1)
Assay: Cyclin D1 (CCND1) percentage degradation in Calu-1 cells (Table 6)
Format: cell-based
Conditions: 16 hours

SMILES | CyclinD1 Degradation (40 nM) | CyclinD1 Degradation (200 nM)
CNc1ccc(C(=O)Nc2cccc(C(F)(F)F)n2)c(NC2CC3(CC(NC(=O)CN4CCN(c5ccc(Nc6ncc7c(C)c(C(C)=O)c(=O)n(C8CCCC8)c7n6)nc5)CC4)C3)C2)n1 (centres unmarked) [CPD-91, 2-((6-(2-(4-(6-((6-Acetyl-8-cyclopentyl-5-methyl-7-oxo-7,8-dihydropyrido[2,3-d]pyrimidin-2-yl)amino)pyridin-3-yl)piperazin-1-yl)acetamido)spiro[3.3]heptan-2-yl)amino)-6-(methylamino)-N-(6-(trifluoromethyl)pyridin-2-yl)nicotinamide] | D (degradation activity <30%) | B (50%< degradation activity <80%)
CNc1ccc(C(=O)Nc2cc(C)[nH]n2)c(NC2CC3(CC(NC(=O)CN4CCN(c5ccc(Nc6ncc7c(C)c(C(C)=O)c(=O)n(C8CCCC8)c7n6)nc5)CC4)C3)C2)n1 (centres unmarked) [CPD-92, 2-((6-(2-(4-(6-((6-Acetyl-8-cyclopentyl-5-methyl-7-oxo-7,8-dihydropyrido[2,3-d]pyrimidin-2-yl)amino)pyridin-3-yl)piperazin-1-yl)acetamido)spiro[3.3]heptan-2-yl)amino)-N-(5-methyl-1H-pyrazol-3-yl)-6-(methylamino)nicotinamide] | D (degradation activity <30%) | D (degradation activity <30%)
CNc1ccc(C(=O)Nc2ccn(C)n2)c(NC2CC3(CC(NC(=O)CN4CCN(c5ccc(Nc6ncc7c(C)c(C(C)=O)c(=O)n(C8CCCC8)c7n6)nc5)CC4)C3)C2)n1 (centres unmarked) [CPD-93, 2-((6-(2-(4-(6-((6-Acetyl-8-cyclopentyl-5-methyl-7-oxo-7,8-dihydropyrido[2,3-d]pyrimidin-2-yl)amino)pyridin-3-yl)piperazin-1-yl)acetamido)spiro[3.3]heptan-2-yl)amino)-N-(1-methyl-1H-pyrazol-3-yl)-6-(methylamino)nicotinamide] | B (50%< degradation activity <80%) | A (degradation activity >80%)
CNc1ccc(C(=O)Nc2cnn(C)c2)c(NC2CC3(CC(NC(=O)CN4CCN(c5ccc(Nc6ncc7c(C)c(C(C)=O)c(=O)n(C8CCCC8)c7n6)nc5)CC4)C3)C2)n1 (centres unmarked) [CPD-94, 2-((6-(2-(4-(6-((6-Acetyl-8-cyclopentyl-5-methyl-7-oxo-7,8-dihydropyrido[2,3-d]pyrimidin-2-yl)amino)pyridin-3-yl)piperazin-1-yl)acetamido)spiro[3.3]heptan-2-yl)amino)-N-(1-methyl-1H-pyrazol-4-yl)-6-(methylamino)nicotinamide] | D (degradation activity <30%) | C (30%< degradation activity <50%)
CNc1ccc(C(=O)Nc2cc(C(C)C)n(C)n2)c(NC2CC3(CC(NC(=O)CN4CCN(c5ccc(Nc6ncc7c(C)c(C(C)=O)c(=O)n(C8CCCC8)c7n6)nc5)CC4)C3)C2)n1 (centres unmarked) [CPD-95, 2-((6-(2-(4-(6-((6-Acetyl-8-cyclopentyl-5-methyl-7-oxo-7,8-dihydropyrido[2,3-d]pyrimidin-2-yl)amino)pyridin-3-yl)piperazin-1-yl)acetamido)spiro[3.3]heptan-2-yl)amino)-N-(5-isopropyl-1-methyl-1H-pyrazol-3-yl)-6-(methylamino)nicotinamide] | D (degradation activity <30%) | D (degradation activity <30%)
CNc1ccc(C(=O)Nc2ccc(N(C)C)nn2)c(NC2CC3(CC(NCCN4CCN(c5ccc(Nc6ncc7c(C)c(C(C)=O)c(=O)n(C8CCCC8)c7n6)nc5)CC4)C3)C2)n1 (centres unmarked) [CPD-96, 2-((6-((2-(4-(6-((6-Acetyl-8-cyclopentyl-5-methyl-7-oxo-7,8-dihydropyrido[2,3-d]pyrimidin-2-yl)amino)pyridin-3-yl)piperazin-1-yl)ethyl)amino)spiro[3.3]heptan-2-yl)amino)-N-(6-(dimethylamino)pyridazin-3-yl)-6-(methylamino)nicotinamide] | D (degradation activity <30%) | D (degradation activity <30%)
CNc1ccc(C(=O)Nc2ccc(N(C)C)nn2)c(NC2CC3(C2)CN(C(=O)CN2CCN(c4ccc(Nc5ncc6c(C)c(C(C)=O)c(=O)n(C7CCCC7)c6n5)nc4)CC2)C3)n1 [CPD-97] | B (50%< degradation activity <80%) | A (degradation activity >80%)
CNc1ccc(C(=O)Nc2cc(C3CC3)n(C)n2)c(NC2CC3(CC(NC(=O)CN4CCN(c5ccc(Nc6ncc7c(C)c(C(C)=O)c(=O)n(C8CCCC8)c7n6)nc5)CC4)C3)C2)n1 (centres unmarked) [CPD-98, 2-((6-(2-(4-(6-((6-Acetyl-8-cyclopentyl-5-methyl-7-oxo-7,8-dihydropyrido[2,3-d]pyrimidin-2-yl)amino)pyridin-3-yl)piperazin-1-yl)acetamido)spiro[3.3]heptan-2-yl)amino)-N-(5-cyclopropyl-1-methyl-1H-pyrazol-3-yl)-6-(methylamino)nicotinamide] | D (degradation activity <30%) | D (degradation activity <30%)
CNc1ccc(C(=O)Nc2cc(C)n(C(C)C)n2)c(NC2CC3(CC(NC(=O)CN4CCN(c5ccc(Nc6ncc7c(C)c(C(C)=O)c(=O)n(C8CCCC8)c7n6)nc5)CC4)C3)C2)n1 (centres unmarked) [CPD-99, 2-((6-(2-(4-(6-((6-Acetyl-8-cyclopentyl-5-methyl-7-oxo-7,8-dihydropyrido[2,3-d]pyrimidin-2-yl)amino)pyridin-3-yl)piperazin-1-yl)acetamido)spiro[3.3]heptan-2-yl)amino)-N-(1-isopropyl-5-methyl-1H-pyrazol-3-yl)-6-(methylamino)nicotinamide] | D (degradation activity <30%) | A (degradation activity >80%)
CNc1ccc(C(=O)Nc2cc[nH]n2)c(NC2CC3(CC(NC(=O)CN4CCN(c5ccc(Nc6ncc7c(C)c(C(C)=O)c(=O)n(C8CCCC8)c7n6)nc5)CC4)C3)C2)n1 (centres unmarked) [CPD-100, 2-((6-(2-(4-(6-((6-Acetyl-8-cyclopentyl-5-methyl-7-oxo-7,8-dihydropyrido[2,3-d]pyrimidin-2-yl)amino)pyridin-3-yl)piperazin-1-yl)acetamido)spiro[3.3]heptan-2-yl)amino)-6-(methylamino)-N-(1H-pyrazol-3-yl)nicotinamide] | D (degradation activity <30%) | A (degradation activity >80%)
CNc1ccc(C(=O)Nc2ccc(N(C)C)nn2)c(NC2CC(CC(=O)NCCN3CCN(c4ccc(Nc5ncc6c(C)c(C(C)=O)c(=O)n(C7CCCC7)c6n5)nc4)CC3)C2)n1 (centres unmarked) [CPD-101, 2-((3-(2-((2-(4-(6-((6-Acetyl-8-cyclopentyl-5-methyl-7-oxo-7,8-dihydropyrido[2,3-d]pyrimidin-2-yl)amino)pyridin-3-yl)piperazin-1-yl)ethyl)amino)-2-oxoethyl)cyclobutyl)amino)-N-(6-(dimethylamino)pyridazin-3-yl)-6-(methylamino)nicotinamide] | A (degradation activity >80%) | A (degradation activity >80%)
CNc1ccc(C(=O)Nc2ccc(N(C)C)nn2)c(NCCCC2CN(C(=O)CN3CCN(c4ccc(Nc5ncc6c(C)c(C(C)=O)c(=O)n(C7CCCC7)c6n5)nc4)CC3)C2)n1 [CPD-102, 2-((3-(1-(2-(4-(6-((6-Acetyl-8-cyclopentyl-5-methyl-7-oxo-7,8-dihydropyrido[2,3-d]pyrimidin-2-yl)amino)pyridin-3-yl)piperazin-1-yl)acetyl)azetidin-3-yl)propyl)amino)-N-(6-(dimethylamino)pyridazin-3-yl)-6-(methylamino)nicotinamide] | B (50%< degradation activity <80%) | A (degradation activity >80%)
CNc1ccc(C(=O)Nc2cccc(C3CC3)n2)c(NC2CC3(C2)CN(C(=O)CCN2CCN(c4ccc(Nc5ncc6c(C)c(C(C)=O)c(=O)n(C7CCCC7)c6n5)nc4)CC2)C3)n1 [CPD-103, 2-((2-(3-(4-(6-((6-Acetyl-8-cyclopentyl-5-methyl-7-oxo-7,8-dihydropyrido[2,3-d]pyrimidin-2-yl)amino)pyridin-3-yl)piperazin-1-yl)propanoyl)-2-azaspiro[3.3]heptan-6-yl)amino)-N-(6-cyclopropylpyridin-2-yl)-6-(methylamino)nicotinamide] | A (degradation activity >80%) | A (degradation activity >80%)
CNc1ccc(C(=O)Nc2ccc(N)nn2)c(NCCCCCNC(=O)CN2CCN(c3ccc(Nc4ncc5c(C)c(C(C)=O)c(=O)n(C6CCCC6)c5n4)nc3)CC2)n1 [CPD-104, 2-((5-(2-(4-(6-((6-Acetyl-8-cyclopentyl-5-methyl-7-oxo-7,8-dihydropyrido[2,3-d]pyrimidin-2-yl)amino)pyridin-3-yl)piperazin-1-yl)acetamido)pentyl)amino)-N-(6-aminopyridazin-3-yl)-6-(methylamino)nicotinamide] | D (degradation activity <30%) | A (degradation activity >80%)
CNc1ccc(C(=O)Nc2ccc(C)nn2)c(NCCCCCNC(=O)CN2CCN(c3ccc(Nc4ncc5c(C)c(C(C)=O)c(=O)n(C6CCCC6)c5n4)nc3)CC2)n1 [CPD-105, 2-((5-(2-(4-(6-((6-Acetyl-8-cyclopentyl-5-methyl-7-oxo-7,8-dihydropyrido[2,3-d]pyrimidin-2-yl)amino)pyridin-3-yl)piperazin-1-yl)acetamido)pentyl)amino)-6-(methylamino)-N-(6-methylpyridazin-3-yl)nicotinamide] | A (degradation activity >80%) | A (degradation activity >80%)
CNc1ccc(C(=O)Nc2ccc(N(C)C)nn2)c(NC2CCN(CCNC(=O)CN3CCN(c4ccc(Nc5ncc6c(C)c(C(C)=O)c(=O)n(C7CCCC7)c6n5)nc4)CC3)C2)n1 (centres unmarked) [CPD-106, 2-((1-(2-(2-(4-(6-((6-Acetyl-8-cyclopentyl-5-methyl-7-oxo-7,8-dihydropyrido[2,3-d]pyrimidin-2-yl)amino)pyridin-3-yl)piperazin-1-yl)acetamido)ethyl)pyrrolidin-3-yl)amino)-N-(6-(dimethylamino)pyridazin-3-yl)-6-(methylamino)nicotinamide] | A (degradation activity >80%) | A (degradation activity >80%)
